The list shows a part of the results.
system: PF3D7_0420300 AP2 domain 1 (GST-tagged); assay: gcPBM binding intensity (ln(normalized median fluorescence intensity)); higher = stronger DNA binding
In short: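 DNA-binding domains from P. falciparum, fused to GST and produced in E. coli, were put on an Agilent 4 × 180k double-stranded probe array for 1 h in 1× PBS holding 1% milk, 0.2 mg/ml BSA, 0.5% salmon testes DNA and 0.03% Triton X-100. Probes were primer-extended, 36 bp long and drawn from intergenic genomic regions, with negative controls included. After Alexa488 anti-GST antibody detection and a 488 nm scan, binding intensity was set as the highest Masliner-normalised natural-log median intensity across replicate spots of either probe orientation.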

Sequence | gcPBM binding intensity (ln)
TAGTTATCACATTGCACACACATTTCCTTTTACATT [CACACA_site7589] | 10
TTTATATTTATGTAGGTGCATTTGTTTACAACATAT [GTGCAC_site9511] | 9.33
TTATTTATACGCTATGAGTTTGATACAAACAATTAA [XGTACX_negctrl_site456] | 8.99
TTTTTACGGAATTAGAGAAAAGAAATAAAAAAAAAA [XGTACX_negctrl_site436] | 8.76
AATAAATTCATGATAGTGCAAAAATTATTTTTGTTA | 9.21
GCATAACCTTTATATTGTACATATACCTTTATTGTT [XGTACX_site6046] | 9.7
TATTCAAAGAAAAACTGTACGTGTAGCCTACATCCT [XGTACX_site7707] | 9.12
TTTTTTGTTATTTTCCGTTTTTTTCCATTATAATTT [GTGCAC_negctrl_site461] | 9.76
ACGTTAAAAACAAGTTGTACACAATAAATTATTCTT [XGTACX_site6321] | 9.24
TTATCACATTATTGCACACACATAAAGAAAAAAATA [CACACA_site2841] | 9.74
AATAAAAAGAAACACACACACACACCCATATATATA [CACACA_site3589] | 10.2
AAAGATACTTTCCTCAAACACACAAAACTATACAAC [CACACA_site1475] | 9.63
ATATAAGAACAAAATTGTACATAAATATTTATATAA [XGTACX_site7404] | 9.24
AAAAAAAAGGAAAATAAAAATAAAAAAAAATAATAA [XGTACX_negctrl_site601] | 9.19
TGAGAAAAAAAGAATTGTACATATAAAATATAACAA [XGTACX_site3500] | 9.22
AAAAAAATATATATATATATATATATATTATATATG [GTGCAC_negctrl_site654] | 8.93
TAATTATAGGTATACACACACATACATTTACATAAC [CACACA_site7509] | 10.1
TTTTATTATTTTTGTTGTACAGTATACTGTATGATT [XGTACX_site5359] | 9.39
AACAAACACAGACACACACACACACTAATATGATTA [CACACA_site8770] | 10.2
ATATACTATTATGTGTGTACATAATAATTTATTATA [XGTACX_site3776] | 9.33
TCATACATTTTCCTTGCACACATTTATAATTAATGG [CACACA_site4511] | 9.59
TAAAACAAAAAAAAGATGCACTATTTATTTTATTAT | 9.06

Sequence | gcPBM binding intensity (ln)
GACCATGTTAACAAAGCATGCATCTCTATATGTTTA [TGCATGCA_site358] | 9.31
ACATAAAATAAATATACACACATATGTATATATCAT [CACACA_site7424] | 9.54
TTATTTTATAAATCGAAAACAAACAAAAAAAAGATA [XGTACX_negctrl_site178] | 9.36
TTGCTGTATTTATTTTGTACACATTTGGCATTATAT [XGTACX_site3408] | 9.61
AAAAAAAAAAGAAAGAGTACTTTTTCAATACATATA [XGTACX_site2468] | 8.89
AAGAAAAACAATACGTGTACCAAGCATCCTACTAAC [XGTACX_site6628] | 9.81
TTTGTAGCACTTAAGAGTACAAAATGTATAAGATTT [XGTACX_site2321] | 9.05
TTAATATAATTAAAATGTACTTATTTGTAAACATTA [XGTACX_site6313] | 8.86
GAGGATCATCAATTCACACACATAAAAATGAAGTTA [CACACA_site3078] | 9.38
CAACGATACAAAAAAGGTACACATATATATATATAT [XGTACX_site8688] | 9.18
TATATAAAATTCTATTGTACATGTTATACGAAAGAA [XGTACX_site5711] | 9.19
TTCTTTTTAATGTCGGTGCAACTCCATAAAAACAAA [GTGCAC_site9488] | 8.96
CAATTTTCTAATGAAACATGCAAAATAAAATTTTAT [TGCATGCA_site13] | 8.99
CAAATACATAGACACACACACATATACATATTTATA [CACACA_site7610] | 10
GAATAAAGGAGAGGCACACATATATATATATATATA [CACACA_site2452] | 9.26
TATTTGATAAATTATACACACACAATATATATAAAA [CACACA_site8625] | 9.86
TTTATATTTAAATGCATGCACTTTCTATTTTTTTTT [GTGCAC_site9959] | 9.35
ATTTTTTATATTTAGTGTACATGTTTTAATTTATAA [XGTACX_site7512] | 9.37
ATAACTTTATTCAGTTTGCACTTTTATAACAAAAGA | 9.14
CTTATATAATTCGATAGTACATATTTTTATATATAT [XGTACX_site4045] | 9.21
ATATTTTTTAGTAAGACGAAATAAATAAATCTTTAT [CACACA_negctrl_site1778] | 8.86
TTTTCTTTTTTTTTTGTGCACATAATATATAATTAT | 9.37

— the supplement of paper PMC11417369
